The full ranking holds about 33,000 sequences; the median of “E-score (-0.5 to 0.5)” is about -0.053, and the highest 2% start at about 0.37. The list shows a part of the results.
Molecular target: Hap1 (UniProt P0CE41)
Assay: PBM E-score (8-mer binding enrichment) (E-score (-0.5 to 0.5)); higher = stronger / more preferred TF binding; most listed sequences are background and not binding sites
Details: protein concentration: 200 nM; construct: GST-DNA-binding domain
Method in brief: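 GST-tagged yeast TFs (full-length or DNA-binding domain) were made by PURExpress in vitro transcription/translation and applied at about 100-200 nM to universal all-10-mer Agilent arrays. The arrays were made double-stranded by primer extension, on fresh or once-stripped slides. Bound protein was detected with fluorescent anti-GST, and scans were normalised with masliner. Each ungapped eight-base word, pooled with its reverse complement, received an E-score (modified Wilcoxon-Mann-Whitney statistic) from the Universal PBM Analysis Suite.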

Sequence of UniProt P0CE41 (P0CE41 whole entry): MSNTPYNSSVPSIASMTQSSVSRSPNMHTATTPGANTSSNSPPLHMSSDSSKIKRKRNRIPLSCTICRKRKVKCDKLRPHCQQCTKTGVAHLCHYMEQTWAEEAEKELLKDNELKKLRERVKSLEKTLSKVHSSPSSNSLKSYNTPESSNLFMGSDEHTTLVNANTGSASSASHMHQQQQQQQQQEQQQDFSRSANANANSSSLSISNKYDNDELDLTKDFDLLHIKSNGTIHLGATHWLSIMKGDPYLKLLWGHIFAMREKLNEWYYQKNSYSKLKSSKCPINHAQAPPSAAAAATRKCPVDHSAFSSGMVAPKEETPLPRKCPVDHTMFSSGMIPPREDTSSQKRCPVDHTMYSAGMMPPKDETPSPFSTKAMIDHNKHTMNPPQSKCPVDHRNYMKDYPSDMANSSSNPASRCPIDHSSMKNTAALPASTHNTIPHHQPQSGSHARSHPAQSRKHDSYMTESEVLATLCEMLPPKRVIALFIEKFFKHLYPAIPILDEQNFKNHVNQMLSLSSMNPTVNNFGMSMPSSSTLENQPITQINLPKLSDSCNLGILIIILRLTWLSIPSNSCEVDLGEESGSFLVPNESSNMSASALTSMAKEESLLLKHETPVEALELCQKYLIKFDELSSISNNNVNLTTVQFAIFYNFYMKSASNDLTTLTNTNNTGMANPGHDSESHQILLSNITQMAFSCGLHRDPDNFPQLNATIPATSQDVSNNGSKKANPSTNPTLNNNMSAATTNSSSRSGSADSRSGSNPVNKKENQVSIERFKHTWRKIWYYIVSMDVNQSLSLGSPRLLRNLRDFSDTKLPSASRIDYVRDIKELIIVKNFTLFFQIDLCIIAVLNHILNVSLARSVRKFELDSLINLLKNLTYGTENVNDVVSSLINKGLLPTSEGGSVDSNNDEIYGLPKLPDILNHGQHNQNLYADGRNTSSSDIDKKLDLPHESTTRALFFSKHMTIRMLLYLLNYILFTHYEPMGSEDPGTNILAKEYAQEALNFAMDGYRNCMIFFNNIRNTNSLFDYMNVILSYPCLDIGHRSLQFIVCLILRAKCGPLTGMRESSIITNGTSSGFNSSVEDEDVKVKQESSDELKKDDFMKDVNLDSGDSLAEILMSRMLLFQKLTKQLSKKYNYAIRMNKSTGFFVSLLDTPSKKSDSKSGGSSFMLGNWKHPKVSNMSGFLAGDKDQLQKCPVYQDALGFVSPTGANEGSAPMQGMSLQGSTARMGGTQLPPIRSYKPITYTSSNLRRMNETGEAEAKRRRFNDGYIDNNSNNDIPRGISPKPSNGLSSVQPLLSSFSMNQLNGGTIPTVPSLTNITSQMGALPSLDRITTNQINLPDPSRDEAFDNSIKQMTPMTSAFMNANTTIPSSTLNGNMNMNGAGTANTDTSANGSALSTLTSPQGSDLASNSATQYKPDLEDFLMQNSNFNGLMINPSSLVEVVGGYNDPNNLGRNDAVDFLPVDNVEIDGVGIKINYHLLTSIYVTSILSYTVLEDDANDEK

Row | Sequence | PBM E-score
1 | CAATCAAA | -0.235
2 | AACAATCC | 0.0705
3 | CCCCTGTA | -0.154
4 | CGGCTGTC | 0.175
5 | ACACTAAT | -0.0712
6 | CCCGGCTC | 0.201
7 | CGAGCGTC | 0.0701
8 | CCTTCGAA | -0.0348
9 | AGACTCTA | -0.309
10 | ACGAATAC | -0.198
11 | AATACGGC | -0.0214
12 | AGTTGTGA | -0.0761
13 | GGAAACAA | 0.166
14 | CCAAACAA | -0.131
15 | ACACCATG | -0.233
16 | CACGTCGC | 0.0284
17 | GCAGGAGC | -0.245
18 | ATCCACAA | -0.242
19 | GAGATATA | 0.0589
20 | ATTCCTTC | -0.0798
21 | CTATCGGC | 0.385
22 | AAGGCGAC | -0.00671
23 | CGTTGTGC | -0.0114
24 | ACGGCAGT | -0.0387
25 | CAGCTGAC | -0.00339

Row | Sequence | PBM E-score
26 | CACACTCG | 0.0249
27 | TAAGCGTA | -0.185
28 | CGCGGTTC | 0.173
29 | GAGGCACA | -0.112
30 | AGGAGGCG | -0.121
31 | ACTTGTAC | -0.152
32 | CCTCTTCC | -0.0207
33 | GACGAACC | 0.244
34 | ATGGTAGC | -0.0641
35 | AGGGGCTC | -0.349
36 | TACCCTCA | -0.236
37 | GCCCAGTA | -0.0331
38 | AAGGTACC | -0.0829
39 | GTTACAAA | -0.0923
40 | CCAGCGCA | -0.0327
41 | AAAATCTT | -0.0982
42 | AGAGGGAG | -0.137
43 | ACCGGCAC | 0.212
44 | ACAGTGAG | -0.291
45 | CTTAGACC | -0.11
46 | GGGCATTA | 0.0704
47 | CTTAGCTC | 0.177
48 | AATTACCT | -0.0895
49 | CCTTCCAC | -0.128
50 | GCTCACTA | -0.23

Row | Sequence | PBM E-score
51 | GTCGTTTA | 0.0349
52 | AGATGATG | -0.143
53 | ACCCCAGT | 0.108
54 | CAGGTAGA | -0.15
55 | CTTCCATA | -0.149
56 | CAGGAAGG | -0.224
57 | GGCCGTTA | 0.333
58 | GGGGGGCA | -0.24
59 | TGACCCCA | -0.0637
60 | GGCTAGCC | -0.0539
61 | ACGGGCTG | -0.0562
62 | AGTTAACG | 0.0919
63 | TCGGTAGA | 0.177
64 | CAGTCTAA | 0.00801
65 | GCCCCGAA | 0.333
66 | CTATGATA | -0.196
67 | CAGCTCTA | -0.151
68 | AAACGGGA | 0.217
69 | AAGCTCCT | -0.0999
70 | AAAAATCG | -0.0772
71 | GTGCAGGA | -0.113
72 | AAGTTCCG | 0.343
73 | TACTGAGA | -0.21
74 | ACTTCTTA | -0.131
75 | CAGCGCGA | -0.14

Row | Sequence | PBM E-score
76 | CGCTACCG | 0.241
77 | AGCATAGC | -0.303
78 | GGTCTCTA | -0.0252
79 | GGAGTAAC | 0.135
80 | AGCGATCA | 0.0638
81 | AAAGCAGG | -0.114
82 | GCATCCCA | -0.111
83 | GGTTGGTA | 0.0166
84 | CATGGGGG | -0.225
85 | TGCCGGCA | 0.302
86 | CGCTTATC | 0.0559
87 | ACCCGTAG | -0.083
88 | ACAACCTC | -0.192
89 | ATCGCAAG | -0.069
90 | CAGGGGCG | -0.156
91 | AACGACCT | -0.0938
92 | CTGTGTGA | -0.133
93 | CATTGCGG | 0.0607
94 | TTCATGAA | -0.119
95 | GCGTGTGA | -0.0897
96 | ATTGCCGA | 0.375
97 | AGCCTGCA | -0.152
98 | CTATATAG | -0.343
99 | CCAATTTA | 0.0899
100 | CTTCCCCA | -0.254

Row | Sequence | PBM E-score
101 | AGAATGGA | -0.0471
102 | GGTGTACA | 0.0116
103 | CTAAAGTA | -0.122
104 | AACGCCTC | -0.166
105 | CCAGTAAC | 0.0445
106 | TCTGGACA | -0.102
107 | ACTGTCTC | -0.052
108 | ACTTAAGT | 0.0305
109 | ACAGAGCG | -0.177
110 | ATTGTGCG | -0.041
111 | AGGATTCG | 0.0831
112 | AGCTTCGA | -0.0439
113 | CATGAGTA | -0.0279
114 | CCCGTCTA | -0.0612
115 | GAGGGGAC | -0.135
116 | CGATTAAC | 0.122
117 | CATTACCG | 0.198
118 | ACAGACCG | 0.246
119 | ACACATCA | -0.136
120 | AATCATGT | -0.268
121 | GGTCCTCA | 0.0281
122 | AATGGCAG | -0.0667
123 | AGGTGACA | -0.116
124 | ACATAACA | 0.00863
125 | ATGCCTTA | -0.338

Row | Sequence | PBM E-score
126 | ATATTTGA | -0.19
127 | AGTCACCA | -0.184
128 | GAGTTTGC | 0.105
129 | ACGGCCCT | -0.0855
130 | ATGGTGCG | -0.158
131 | CTAAGCTC | -0.0736
132 | CACTTAAG | 0.103
133 | GCCCATGA | -0.192
134 | GCACGCCC | 0.0485
135 | CTATCTTA | 0.105
136 | GCTAAATA | -0.226
137 | CCGGGTGC | 0.32
138 | CAAATGTA | 0.132
139 | CTCAACAG | -0.252
140 | AGGTTACT | -0.02
141 | GTCAGAAC | 0.0848
142 | CAATATCA | -0.106
143 | CAGCGGAA | 0.139
144 | GGAGTTAC | 0.393
145 | GACGATTA | -0.0289
146 | CCGACCCG | 0.305
147 | CACCCCGG | 0.264
148 | GAAGACGC | -0.0458
149 | AATCACAC | -0.0432
150 | TAGGCGCA | -0.0803

Row | Sequence | PBM E-score
151 | CCATGGCA | -0.014
152 | GCGGAGTA | 0.25
153 | ACCCGGGA | 0.328
154 | CACAATCG | 0.0263
155 | GAAACAGC | 0.0614
156 | CCGCTAAC | 0.291
157 | ATCACAGC | -0.115
158 | AATGGGCC | 0.0191
159 | CCCTGATC | 0.0522
160 | CTGTCATA | -0.37
161 | ACCGGTCG | 0.289
162 | CGAGAAGC | 0.0864
163 | CCCATCAC | -0.12
164 | CCTGCTAC | -0.115
165 | ACTCCGCA | 0.156
166 | ACAGAACA | -0.0684
167 | TTATCCAA | -0.0467
168 | GACGGAAC | 0.174
169 | AGCAGTGG | -0.183
170 | AGGTCTGA | -0.197
171 | CTGCGACC | -0.148
172 | AACGCCGA | 0.447
173 | AGCGGAAC | 0.243
174 | CTAGCTTA | -0.11
175 | GGACAATA | 0.225

Row | Sequence | PBM E-score
176 | ATAGCGGA | 0.363
177 | AGAAAAAT | -0.0988
178 | ACTCGAGG | -0.0247
179 | CCTTGCCG | 0.159
180 | GACAGCGC | 0.0086
181 | AATGATCC | 0.0779
182 | AGAACAAG | -0.155
183 | AAGTAGCT | -0.28
184 | GTTGTATA | -0.112
185 | AAGAGGCA | -0.125
186 | CCAAGCAA | -0.255
187 | CACGTGCC | -0.165
188 | CTGTTTCC | 0.117
189 | AGTTAGAG | -0.104
190 | GTTAGTGA | -0.144
191 | AGAATTGA | -0.0941
192 | ACGTGTGC | -0.301
193 | AAAGTCGG | 0.113
194 | GCCATAGC | -0.00164
195 | CCTGTAAC | -0.125
196 | AAATCATC | -0.0641
197 | AGACTCTG | -0.283
198 | AAAAATGT | 0.0967
199 | CCCAACAC | -0.169
200 | ACTATAAT | -0.0751

Row | Sequence | PBM E-score
201 | CACTATGA | -0.212
202 | AGGAAATC | 0.117
203 | ACGTTGCG | 0.0201
204 | CCACAAAA | -0.0826
205 | CAGATTCA | -0.164
206 | ACCCTTCC | 0.0954
207 | GATTCTGC | 0.0958
208 | GTGGTAAA | -0.0214
209 | GCGATCGA | -0.0223
210 | ATCAAACG | -0.0377
211 | ACTTCGGC | 0.377
212 | ATTGAAAA | -0.0505
213 | ATCCCGAT | 0.272
214 | GCTAATTA | 0.144
215 | ATTACTGC | 0.0541
216 | GTAGAGAA | -0.0974
217 | AGCTCCCA | -0.128
218 | ACCGTGCA | -0.0832
219 | AACATCTA | -0.141

Source: the supplement of paper PMC3334620
